This note sets out measurements from the supplement of paper PMC6451100.

This is one part of the list. Values come from read counts of a selection and are noisy.
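Also: Per-sequence enrichment computed with FASTAptamer, counting only reads that carry the expected constant 3′ region.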

The target of this assay is T1, Drosophila AGO2 (FLAG-tagged, S2-R+ lysate) (UniProt Q9VUQ5).
T1 sequence: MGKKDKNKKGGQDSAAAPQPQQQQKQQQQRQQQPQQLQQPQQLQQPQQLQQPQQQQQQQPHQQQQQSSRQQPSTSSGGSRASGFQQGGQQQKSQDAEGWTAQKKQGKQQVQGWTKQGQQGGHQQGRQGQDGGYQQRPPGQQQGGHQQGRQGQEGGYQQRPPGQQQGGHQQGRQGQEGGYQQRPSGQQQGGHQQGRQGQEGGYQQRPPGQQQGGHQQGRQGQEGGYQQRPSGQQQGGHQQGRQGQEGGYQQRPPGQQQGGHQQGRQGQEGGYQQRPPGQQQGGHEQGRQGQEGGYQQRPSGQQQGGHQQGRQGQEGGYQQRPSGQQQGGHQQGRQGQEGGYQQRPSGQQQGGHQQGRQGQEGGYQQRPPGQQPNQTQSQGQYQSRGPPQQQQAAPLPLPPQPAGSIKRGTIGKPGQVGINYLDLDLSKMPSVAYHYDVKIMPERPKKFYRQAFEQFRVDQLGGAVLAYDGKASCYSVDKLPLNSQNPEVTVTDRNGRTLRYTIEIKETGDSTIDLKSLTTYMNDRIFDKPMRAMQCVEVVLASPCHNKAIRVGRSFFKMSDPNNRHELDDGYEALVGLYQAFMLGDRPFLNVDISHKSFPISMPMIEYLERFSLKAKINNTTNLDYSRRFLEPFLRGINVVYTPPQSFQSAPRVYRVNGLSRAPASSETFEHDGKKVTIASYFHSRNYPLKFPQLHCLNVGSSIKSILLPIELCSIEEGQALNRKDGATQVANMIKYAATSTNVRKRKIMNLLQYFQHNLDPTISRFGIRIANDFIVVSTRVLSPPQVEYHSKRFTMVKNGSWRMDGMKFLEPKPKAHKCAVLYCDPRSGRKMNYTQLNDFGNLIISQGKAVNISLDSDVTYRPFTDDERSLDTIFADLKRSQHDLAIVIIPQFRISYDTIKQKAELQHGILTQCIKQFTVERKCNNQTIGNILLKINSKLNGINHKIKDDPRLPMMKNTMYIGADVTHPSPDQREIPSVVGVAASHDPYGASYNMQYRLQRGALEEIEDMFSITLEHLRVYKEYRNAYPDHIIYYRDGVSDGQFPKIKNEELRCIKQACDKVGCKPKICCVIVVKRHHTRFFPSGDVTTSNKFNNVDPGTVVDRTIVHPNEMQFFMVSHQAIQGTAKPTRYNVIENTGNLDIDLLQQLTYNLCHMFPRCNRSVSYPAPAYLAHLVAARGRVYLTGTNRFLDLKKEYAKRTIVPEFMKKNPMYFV
In words: AGO2 loading enrichment factor (IP read count / input read count, not library-size normalised) (ratio); higher = more efficient loading into AGO2. The following applies: randomized region: 5' 5N of miR-317 loop.
Consider ATTTGTGAAATGCAAGCAAG, for which the “AGO2 loading enrichment factor” value was 0.28.
Regarding CAAAGTGAAATGCAAGCAAG, the “AGO2 loading enrichment factor” value is 0.345.
Then TCCTTTGAAATGCAAGCAAG, with 0.268; and CGGTTTGAAATGCAAGCAAG, with 0.277.
With GGCGGTGAAATGCAAGCAAG, the “AGO2 loading enrichment factor” value came out at 1.17.
For GGCGCTGAAATGCAAGCAAG the value was 0.334; for AACGGTGAAATGCAAGCAAG, 0.458; for CCGTATGAAATGCAAGCAAG, 0.413.
Turning to CTTCATGAAATGCAAGCAAG, the “AGO2 loading enrichment factor” value worked out at 0.129.
For TCCGTTGAAATGCAAGCAAG the value was 0.261; for GGTGTTGAAATGCAAGCAAG, 0.914; for CCCAATGAAATGCAAGCAAG, 0.438.
Consider TATGGTGAAATGCAAGCAAG, for which the “AGO2 loading enrichment factor” value was found to be 0.405.
Then GCACTTGAAATGCAAGCAAG, with 0.0946; and TGGGTTGAAATGCAAGCAAG, with 1.43; and CACAGTGAAATGCAAGCAAG, with 0.49.
On to TGAATTGAAATGCAAGCAAG, for which the “AGO2 loading enrichment factor” value amounted to 0.442.
As for AGGAATGAAATGCAAGCAAG, the “AGO2 loading enrichment factor” value was determined as 0.634.
With GATACTGAAATGCAAGCAAG, the “AGO2 loading enrichment factor” value is 0.319.
With GTAAGTGAAATGCAAGCAAG, the “AGO2 loading enrichment factor” value came to 0.341.
Take TATCCTGAAATGCAAGCAAG: the “AGO2 loading enrichment factor” value worked out at 0.405.
For TGTTATGAAATGCAAGCAAG the value was 0.401.
Take AGAGCTGAAATGCAAGCAAG: the “AGO2 loading enrichment factor” value was determined as 0.136.
As for GGACATGAAATGCAAGCAAG, the “AGO2 loading enrichment factor” value stood at 0.858.
Then TACGATGAAATGCAAGCAAG, with 0.321; and AATTCTGAAATGCAAGCAAG, with 0.396.
With TACCTTGAAATGCAAGCAAG, the “AGO2 loading enrichment factor” value was determined as 0.114.
In the case of TTCGATGAAATGCAAGCAAG, the “AGO2 loading enrichment factor” value was determined as 0.314.
In the case of GGAGATGAAATGCAAGCAAG, the “AGO2 loading enrichment factor” value was found to be 2.75.
Then TTTAGTGAAATGCAAGCAAG, with 0.47; and TTGGATGAAATGCAAGCAAG, with 0.474; and ACTTATGAAATGCAAGCAAG, with 0.359.
For the sequence GTGACTGAAATGCAAGCAAG, the “AGO2 loading enrichment factor” value came to 0.726.
For TGAACTGAAATGCAAGCAAG the value was 0.42; for ACAATTGAAATGCAAGCAAG, 0.411; for AGTACTGAAATGCAAGCAAG, 0.382.
Then CCTCATGAAATGCAAGCAAG, with 0.327; and CTGAATGAAATGCAAGCAAG, with 0.483.
For GCTGCTGAAATGCAAGCAAG the value was 0.0225; for AGCCATGAAATGCAAGCAAG, 0.439; for GGGCATGAAATGCAAGCAAG, 0.533.
For CGTGTTGAAATGCAAGCAAG, the “AGO2 loading enrichment factor” value worked out at 0.353.
Then TTTATTGAAATGCAAGCAAG, with 0.505; and CACCTTGAAATGCAAGCAAG, with 0.0571.
On to AGACTTGAAATGCAAGCAAG, for which the “AGO2 loading enrichment factor” value came out at 0.083.
In the case of TACAATGAAATGCAAGCAAG, the “AGO2 loading enrichment factor” value worked out at 0.426.
For GTTTCTGAAATGCAAGCAAG the value was 0.286.
Then CGATTTGAAATGCAAGCAAG, with 0.454; and ACTTTTGAAATGCAAGCAAG, with 0.398; and CCGCCTGAAATGCAAGCAAG, with 0.306.
As for GAAGGTGAAATGCAAGCAAG, the “AGO2 loading enrichment factor” value worked out at 1.34.
Then TGGCATGAAATGCAAGCAAG, with 0.33; and TTGGCTGAAATGCAAGCAAG, with 0.253; and ATTGATGAAATGCAAGCAAG, with 0.369.
